# Experimental data as given in PubChem BioAssay AID686979 (National Center for Advancing Translational Sciences (NCATS), 2013).
# Among all 420,000 compounds or so, about 50,000 (12%) were called active. The shares of active, inactive and inconclusive entries below differ from those in the screen. Calls come from the whole dose curve; as a rule, active = well fitted inhibition curve with a large enough effect; inconclusive = small, poorly fitted or top-dose-only effect; inactive = flat fitted curve, though single readings scatter. No potency is given beside an inconclusive call; the fits are too rough.
# Assay: qHTS for Inhibitors of human tyrosyl-DNA phosphodiesterase 1 (TDP1): qHTS in cells in presence of CPT; note: nearly all actives have a fitted effect of over 55% in size
# Conditions: chicken DT40 Tdp1-/-;hTDP1 cells + 20 nM CPT, ATP luminescence, 48 h; activity change, negative = growth inhibition: at 46.2 µM (top of the series) unless noted
# Outline: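 Chicken DT40 Tdp1-/- cells complemented with human TDP1, 400 cells/well, exposed to compounds plus 20 nM camptothecin for at least 48 h at 37 C; viability read as ATP content by CellTiter-Glo luminescence.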
# % is set by controls: 0 for no effect and ±100 for the full control effect; potency is the fitted concentration of half-maximal effect; tags give direction and shape of the fitted curve.
SMILES,Potency,"activity change, negative = growth inhibition"
O=C(N/N=C/c1cc2c(cc1Cl)OCO2)c1cc(-c2ccccc2)n[nH]1,"inconclusive [inhibitor, single point]",
Cc1cc(O)cc(O)c1C(=O)Cc1cnn(-c2ccccc2)c1,"inconclusive [inhibitor, single point]",
Cc1cccc(NC(=O)c2sc3ncnc(N(C)C4CCCCC4)c3c2C)c1C,"inconclusive [inhibitor, single point]",
COC(=O)C[C@@H]1OC[C@H](C(C)C)N1S(=O)(=O)c1ccc(C)cc1,inactive,
COc1ccc(-c2csc3ncnc(NCCCO)c23)cc1,"inconclusive [inhibitor, single point]",
O=C(CN1C(=O)c2ccccc2Sc2ccc(C(=O)N3CCOCC3)cc21)Nc1ccc(Cl)cc1F,inactive,
CC1(C)CC(=O)c2cnc(NC(=O)Cc3ccc(Cl)cc3)nc2C1,"inconclusive [inhibitor, single point]",
COC(=O)c1ccc([C@H]2CC(=O)O2)cc1,"inconclusive [inhibitor, single point]",
CC(=NNC(=S)Nc1ccccc1Cl)c1ccccn1,active: 0.013 µM,
Cc1nnc(SCC(=O)N2CCC(c3noc4ccc(F)cc34)CC2)s1,"inconclusive [inhibitor, partial curve]",
CCCOc1ccc(C(=O)CCNc2cccc(Cl)c2)cc1,"inconclusive [inhibitor, single point]",
Clc1ccc(Cn2cc(/C=N/n3cnnc3)c3ccccc32)c(Cl)c1,"inconclusive [inhibitor, single point]",
CCCCCCCCn1ccc(=N)cc1,active: 2.06 µM,
CCN1C(=O)c2cccc3c(S(=O)(=O)Nc4ncccc4C)ccc1c23,"inconclusive [inhibitor, single point]",
N#Cc1ccc(S(=O)(=O)N2CCCCC2c2cc(C(=O)Nc3cccc4c3CCCC4)no2)cc1 (configuration not stated),"inconclusive [inhibitor, single point]",
CN(C)c1ccc(CN2CCC(C(=O)NC(c3ccc(F)cc3)c3ccc4ccccc4n3)CC2)cc1 (configuration not stated),"inconclusive [inhibitor, single point]",
Cc1ccc(S(C)(=O)=O)cc1C(=O)N1CC(C(N)=O)Oc2ccccc21 (configuration not stated),inactive,
C=CCOn1c(C)c(C(C)=O)c2c3nonc3ccc21,,inconclusive: -31.9% [inhibitor]
FC(F)(F)c1cc(Cl)c2nc(-c3ccccc3)c(Cc3cccc(Cl)c3)n2c1,"inconclusive [inhibitor, single point]",
Cc1cccc(C)c1NC(=O)c1cc(S(=O)(=O)N2CCc3ccccc3C2)ccc1F,active: 18.4 µM,
Cc1cccc(-c2ncc(CN3CCCC(CO)(Cc4ccccc4C)C3)cn2)c1 (configuration not stated),active: 23.1 µM,
Cc1ccc2c(c1)N(C(=O)CCC(=O)NCc1cccc(F)c1)CC(C)O2 (configuration not stated),"inconclusive [inhibitor, single point]",
CCCNC(=O)c1onc(CSc2ccc(Cl)cc2)c1C(=O)NCC1CC1,"inconclusive [inhibitor, single point]",
CCOc1cccc2sc(N(CCCN(C)C)C(=O)c3ccc(S(=O)(=O)N(CC)Cc4ccccc4)cc3)nc12,"inconclusive [inhibitor, single point]",

SMILES,Potency,"activity change, negative = growth inhibition"
COc1ccc(CC(=O)Nc2nc3c(s2)CCCC3)cc1,"inconclusive [inhibitor, full curve]",
Nn1c(SCC(=O)Nc2ccccc2)nnc(Cc2ccccc2)c1=O,inactive,
CN(C)c1cccc(NC(=O)C2Cc3c(-c4ccccc4Oc4ccccc4)ccnc3O2)c1 (configuration not stated),"inconclusive [inhibitor, partial curve, poor fit]",
Cc1ccc(S(=O)(=O)N2CCN(c3nc(-c4cccs4)nc4nc[nH]c34)CC2)cc1,"inconclusive [inhibitor, single point]",
COc1ccc(C2CC(c3cc(Br)ccc3F)n3nnnc3N2)cc1 (configuration not stated),"inconclusive [inhibitor, single point]",
CCOC(=O)c1cccc(NC(=O)CCS(=O)(=O)c2ccc3c(c2)CCN3C(=O)CC)c1,"inconclusive [inhibitor, single point]",
CS(=O)(=O)N1CCN(c2ncnc3c2cnn3-c2ccccc2)CC1,inactive,
O=C(c1ccc(Cl)cc1)n1nc(-c2cccnc2)nc1NCc1ccc(F)cc1,inactive,
COc1ccc(-c2csc(N3CCC(c4ccccc4)C3)n2)cc1 (configuration not stated),inactive,
NC1=NC(=Nc2ccccc2)c2ccccc21,"inconclusive [inhibitor, single point]",
CCN(CC(=O)Nc1ccc(OC)cc1)C(=O)c1ccc(OCc2c(C)noc2C)cc1,inactive,
CCCCOc1ccc(C(=O)N(Cc2ccccc2)C2CCS(=O)(=O)C2)cc1 (configuration not stated),"inconclusive [inhibitor, single point]",
CC(c1ccco1)N(C(=O)c1ccc(S(=O)(=O)N2CCCCC2)cc1)c1ccccn1 (configuration not stated),inactive,
CCn1c(=O)c2sccc2n2c(CCCC(=O)N3CCN(c4ccc(F)cc4)CC3)nnc12,active: 14.6 µM,
O=C(Nc1ccc(N2CCOCC2)cc1)c1ccc(Cl)c(S(=O)(=O)N2CCCCC2)c1,"inconclusive [inhibitor, single point]",
CC(=O)c1cccc(NC(=O)c2ccc3nc(Cc4ccccc4)oc3c2)c1,"inconclusive [inhibitor, single point]",
CC(=O)c1c(Cl)nc2cccc3c2c1-c1ccccc1C3=O,inactive,
O=C1c2ccccc2-c2cccc(C(=O)N3CCCCCC3)c21,inactive,
O=C(CSc1ncccc1C(=O)Oc1ccccc1Cl)Nc1ccc(C(F)(F)F)cc1Cl,"inconclusive [inhibitor, single point]",
Cc1cc(NC(=O)c2noc3c2CCc2ccccc2-3)n(-c2ccccc2)n1,"inconclusive [inhibitor, single point]",
COC(=O)C1CCN(S(=O)(=O)Cc2ccccc2)CC1,inactive,
CCCCCn1c(SCC(=O)OCC)nc2cc(C(=O)N3CCC(C(N)=O)CC3)ccc2c1=O,"inconclusive [inhibitor, single point]",
Cc1cc(C(=O)COC(=O)c2cccc(S(=O)(=O)N(C)C)c2)c(C)n1CC1CCCO1 (configuration not stated),active: 16.4 µM,
COc1ccc(-n2cc(-c3ccccc3)[nH]c2=S)cc1,active: 13 µM,

SMILES,Potency,"activity change, negative = growth inhibition"
NC(Cc1ccccc1)c1csc(Nc2ccc(C(=O)NCCCO)cn2)n1 (configuration not stated),"inconclusive [inhibitor, single point]",
CC(C)NC(=O)NC(=O)COC(=O)CCCSc1nc2ccccc2s1,inactive,
CCCC/C=C1/CCC(CN(C)C)C1=O (configuration not stated),active: 2.06 µM,
Cc1ccc2sc(NC(=O)CN3C(=O)c4ccccc4C3=O)nc2c1C,inactive,
FC(F)(F)c1cnc(Sc2nnc(-c3cccs3)n2CC2CCCO2)c(Cl)c1 (configuration not stated),"inconclusive [inhibitor, single point]",
O=C(NCC(=O)N(c1ccc(Cl)cc1)C(C(=O)NC1CCCC1)c1ccncc1)c1ccco1 (configuration not stated),inactive,
Cn1c(Oc2ccccc2NCc2cccc(Br)c2)cc(=O)n(C)c1=O,"inconclusive [inhibitor, single point]",
O=C(CCC(=O)Nc1ccc(Br)cc1)N/N=C/c1ccc(F)cc1,inactive,
N#CC(C#N)=C(Nc1ccc(F)cc1)SCc1cccc(Br)c1,active: 2.91 µM,
CCC1(c2ccc(F)cc2)NC(=O)N(CC(=O)Nc2ccc(-c3nc4ccc(C)cc4s3)cc2)C1=O (configuration not stated),active: 13 µM,
Cc1ccc(NC(=O)C2(C)CCN2CCc2ccccc2)cc1 (configuration not stated),"inconclusive [inhibitor, single point]",
COc1ccc(C(NC(=O)COc2ccc(C#N)cc2)c2ccc(OC)cc2)cc1,"inconclusive [inhibitor, single point]",
CCCCNc1c(-c2ccc(OC)c(Sc3ccc(OC)cc3)c2)nc2cnccn12,"inconclusive [inhibitor, single point]",
COc1ccc(F)cc1-c1cc(C(=O)NCc2cccc(C(F)(F)F)c2)[nH]n1,"inconclusive [inhibitor, single point]",
Cc1ccc(CSc2nnc(SCC(=O)N/N=C/C=C/c3ccco3)s2)cc1,"inconclusive [inhibitor, single point]",
O=C(Nn1c(-c2ccc(Br)cc2)nc2ccccc2c1=O)c1cccnc1,"inconclusive [inhibitor, single point]",
CC(NC(=S)NCCc1ccccc1)C(c1cccs1)N1CCN(Cc2ccccc2)CC1 (configuration not stated),active: 16.4 µM,
CC1(C)C2CCC(C2)C1(C)NC(=O)CNC1CCCCC1 (configuration not stated),"inconclusive [inhibitor, single point]",
COc1ccc(NC(=O)C2CCCN(S(=O)(=O)c3ccc(F)cc3)C2)cc1 (configuration not stated),active: 14.6 µM,
CC(=O)N1CCN(C(=O)C2(NC(=O)Nc3ccc(C)cc3)CCCCC2)CC1,inactive,
O=C(Nc1ccc(Cl)cc1Cl)c1ccc(Br)o1,inactive,
CCN(C(=O)COC(=O)c1ccc2c(c1)OCO2)c1ccc(F)cc1,"inconclusive [inhibitor, single point]",
Cc1cc(C(=O)COc2ccc3ccc(=O)oc3c2)c(C)n1Cc1cccs1,"inconclusive [inhibitor, single point]",
Cc1ccc(CN(C(=O)COc2ccccc2[N+](=O)[O-])c2ccccn2)o1,"inconclusive [inhibitor, single point]",
